In PubChem BioAssay AID743279 (National Center for Advancing Translational Sciences (NCATS), 2014):
The campaign covered roughly 360,000 compounds. About 17,000 (4.7%) were called active. This list was built around the results that the source calls inconclusive (neither active nor inactive); the mix of calls is not that of the screen. No stated cut-off is given here; in the data, active means activity change below about -50%; inconclusive means mostly about -30% to -49%; inactive means weaker than that.

Test: qHTS for Inhibitors of Inflammasome Signaling: IL-1-beta AlphaLISA Primary Screen
Conditions: THP-1 LPS/ATP IL-1B secretion, 16 h; at 57.5 µM, hits give low values
Summary of the method: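 Secreted IL-1B measured by AlphaLISA bead assay after 16 h compound exposure of THP-1 cells; compounds (final up to 57.5 uM) added 1 h before LPS (250 ng/mL) and ATP (1.25 mM) stimulation; lower signal means less secretion.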
On the % scale 0 is the no-effect control and ±100 the full control effect.

Activity change, inactive:
O=C(CSc1nnnn1-c1ccc(F)cc1F)Nc1ccccc1F 20.3%
N#Cc1ccc(NC(=O)COC(=O)c2cccnc2Cl)cc1 -12.4%
Cc1cc(Cl)ccc1OCC(=O)NNC(=O)CCOc1ccccc1 -1.04%
CC(C)N(CCNC(=O)c1cn(C)c2ccc(S(=O)(=O)N(C)C)cc2c1=O)Cc1ccccc1 3.07%
COC(=O)C1OC1c1cc([N+](=O)[O-])ccc1OC (stereo not given) -20.7%
CSc1c(CC(=O)Nc2ccccc2)n(C)c2ccccc12 18.2%
N#CC1(NC(=O)COC(=O)c2cc(=O)[nH]c3ccccc23)CCCCC1 11%
COc1cc(NC(=O)c2cc([N+](=O)[O-])ccc2NC(=O)CNC2CCCCC2C)cc(OC)c1 (stereo not given) -19.1%
O=S1(=O)[C@H]2C[C@@H]3C=C[C@@]2(CN1Cc1cccc(F)c1)O3 14.6%
NS(=O)(=O)c1ccc(NCc2ccccc2OCc2ccc(F)cc2)cc1 -16%
COc1ccc(C(NC(C)=O)c2cc(Cl)c3cccnc3c2O)cc1 (stereo not given) 256%
CC(C)CC(=O)N1CCN(c2ccc(NC(=O)c3ccco3)cc2)CC1 -10.2%

Activity change, inconclusive:
COc1ccccc1C(=O)Nc1nnc(S(=O)(=O)N2CCCCC2)s1 -31.1%
O=C(NCCCn1ccnc1)c1cc(-c2ccc(Cl)cc2)nc2ccccc12 -31.2%
O=C1C=C(c2ccc(CO)cc2)C[C@@H](c2ccc3c(c2)OCO3)C1 -37.6%
CC(C)c1ccc2[nH]c(O)c(N=NC(=O)c3ccc(CSc4nncn4C)cc3)c2c1 -36.2%
Cc1cccc2c1-c1sc(C(=O)NCCCN3CCC(C)CC3)cc1CO2 -46.6%
O=C(Cn1cnc2ccccc2c1=O)Nc1nnc(SCc2ccccc2)s1 -42.1%
O=c1c2ccccc2nc(/C=C/c2cccnc2)n1Cc1ccccc1 -32.5%
CCCCC(=O)Nc1ccc2oc(-c3ccncc3)nc2c1 -36.7%
COc1ccc2c(c1)c(N=O)c(O)n2C -39.8%
Cc1c(/C(O)=C2\C(=O)C(=O)N(CCCN(C)C)C2c2cccs2)cnn1-c1ccccc1 (stereo not given) -40.1%
O=C(Nc1ccc2c(c1)OCCO2)c1ccccn1 -33.5%
C=CC[C@@H](CC(=O)N[C@H](CO)Cc1ccccc1)C(=O)N[C@H](COC(=O)[C@@H](CC=C)Cc1ccc(F)cc1)C(C)(C)C -46.1%
COc1ccc(NC(=O)N2CCCc3cc(C)ccc32)c(OC)c1 -35.5%
CNc1oc(-c2ccc(OCc3ccccc3)cc2)nc1C#N -32.2%
O=C(O)CCC(C(=O)O)N1C(=O)C2C3CCC(C3)C2C1=O (stereo not given) -48.7%
O=C(CCc1ccccc1)NC1(Cc2ccccc2)CCN(CCc2cccs2)C1=O (stereo not given) -47.3%
CCOc1cc(CNCCN2CCOCC2)ccc1OCc1ccccc1Cl -32.2%
CCN(Cc1ccccc1)C(=O)c1cccc(OC2CCN(C(=O)C3CC3)CC2)c1 -34.2%
CCCN(CC(=O)Nc1ccccc1Br)CC(=O)Nc1ccc(F)c(F)c1F -47.4%
Cc1ccccc1CN1CCN(C(=O)c2cccc3ccccc23)CC1 -43.8%
Cc1ccc(Cn2c(C)c(C(=O)NCc3ccc4c(c3)OCO4)sc2=O)cc1 -39.3%
Cc1cccc(NC(=O)c2cccc(NC(=O)c3ccco3)c2)c1C -38.6%
Cc1nc2ccccc2c2oc(C(=O)NCc3ccc4c(c3)OCO4)cc12 -48.5%
O=C(c1ccc(N2CCCC2)c([N+](=O)[O-])c1)N1CCN(c2ccccn2)CC1 -36.8%
COC(=O)c1cc(S(=O)(=O)NCC2CCN(CCc3ccc(OC)cc3)CC2)cn1C -42.8%
CC(=O)c1cccc(NC(=O)c2ccc3ccccc3c2)c1 -41.3%
Cc1ccc(-n2nc(C)c(C(=O)N3CCN(C(=O)c4ccco4)CC3)c2-n2cccc2)cc1 -48.5%
CN1C(=O)C(c2nnc(Nc3cccc4ccccc34)s2)C2CC1(C)Oc1ccccc12 (stereo not given) -40.4%
COCc1cc(C)nc2sc(C(=O)Nc3nccs3)c(N)c12 -32.2%
CC1CN(C(=O)CCC(=O)NC2CCCCC2)c2ccccc2S1 (stereo not given) -31.8%
OCC1(Cc2ccccc2)CCN(Cc2cc3ccccc3o2)CC1 -31.7%
O=C(Nc1ccc2[nH]ccc2c1)c1cccs1 -40.9%
CCc1ccc(CN(C)C(=O)c2cc(COc3ccc(-n4cncn4)cc3)on2)cc1 -43.2%

Activity change, active:
O=C(N/N=C/c1c(F)c(F)c(F)c(F)c1F)c1ccc(Cn2cc(Br)cn2)o1 -97.8%
N#C/C(=C(/O)c1ccc2c(c1)OCO2)c1nc2cc(C(F)(F)F)ccc2s1 -54.2%
COc1cc(/C=C2\COC/C(=C\c3cc(OC)c(OC)c(OC)c3)C2=O)cc(OC)c1OC -98.7%
FC(F)(F)c1nnc(-c2ccccc2)nc1Oc1ccc(Cl)cc1Cl -76.6%
Cc1ccccc1OCC(O)CN1CCN(CC(O)COc2ccccc2C)C(C)C1 (stereo not given) -63.1%
COc1cc2c(cc1OC)C(C)N(C(=O)c1cccc([N+](=O)[O-])c1)CC2 (stereo not given) -52.9%
CCCC(=O)Nc1ccc(NC(=O)c2ccccc2F)cn1 -61.1%
COc1cc2c(cc1OC)C(c1ccc(-c3ccc(Cl)c(Cl)c3)o1)=NCC2 -59.3%
CCCCOc1ccc(C(=O)N/N=C/c2ccc(OCCN3CCCCC3)c(OC)c2)cc1 -80.5%
COc1ccc(OCC(O)Cn2c(=N)n(CCN3CCOCC3)c3ccccc32)cc1 (stereo not given) -62.3%
